# Test results: PMC4336329 (PLoS ONE, 2015)
# Hit rate of the full screen: of about 310,000 compounds, about 14,000 (4.5%) showed an effect of 50% or more. Effects have a minus sign here. Some of the results follow.
# Molecular target: human ether-à-go-go-related gene (hERG) potassium channel (human, UniProt Q12809)
# Test: primary screen, population patch clamp on CHO cells stably expressing hERG
# 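Also: peak tail current of the secondary pulse compared with the same well before compound.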
# Chain of human ether-à-go-go-related gene (hERG) potassium channel (Q12809 whole entry, looked up): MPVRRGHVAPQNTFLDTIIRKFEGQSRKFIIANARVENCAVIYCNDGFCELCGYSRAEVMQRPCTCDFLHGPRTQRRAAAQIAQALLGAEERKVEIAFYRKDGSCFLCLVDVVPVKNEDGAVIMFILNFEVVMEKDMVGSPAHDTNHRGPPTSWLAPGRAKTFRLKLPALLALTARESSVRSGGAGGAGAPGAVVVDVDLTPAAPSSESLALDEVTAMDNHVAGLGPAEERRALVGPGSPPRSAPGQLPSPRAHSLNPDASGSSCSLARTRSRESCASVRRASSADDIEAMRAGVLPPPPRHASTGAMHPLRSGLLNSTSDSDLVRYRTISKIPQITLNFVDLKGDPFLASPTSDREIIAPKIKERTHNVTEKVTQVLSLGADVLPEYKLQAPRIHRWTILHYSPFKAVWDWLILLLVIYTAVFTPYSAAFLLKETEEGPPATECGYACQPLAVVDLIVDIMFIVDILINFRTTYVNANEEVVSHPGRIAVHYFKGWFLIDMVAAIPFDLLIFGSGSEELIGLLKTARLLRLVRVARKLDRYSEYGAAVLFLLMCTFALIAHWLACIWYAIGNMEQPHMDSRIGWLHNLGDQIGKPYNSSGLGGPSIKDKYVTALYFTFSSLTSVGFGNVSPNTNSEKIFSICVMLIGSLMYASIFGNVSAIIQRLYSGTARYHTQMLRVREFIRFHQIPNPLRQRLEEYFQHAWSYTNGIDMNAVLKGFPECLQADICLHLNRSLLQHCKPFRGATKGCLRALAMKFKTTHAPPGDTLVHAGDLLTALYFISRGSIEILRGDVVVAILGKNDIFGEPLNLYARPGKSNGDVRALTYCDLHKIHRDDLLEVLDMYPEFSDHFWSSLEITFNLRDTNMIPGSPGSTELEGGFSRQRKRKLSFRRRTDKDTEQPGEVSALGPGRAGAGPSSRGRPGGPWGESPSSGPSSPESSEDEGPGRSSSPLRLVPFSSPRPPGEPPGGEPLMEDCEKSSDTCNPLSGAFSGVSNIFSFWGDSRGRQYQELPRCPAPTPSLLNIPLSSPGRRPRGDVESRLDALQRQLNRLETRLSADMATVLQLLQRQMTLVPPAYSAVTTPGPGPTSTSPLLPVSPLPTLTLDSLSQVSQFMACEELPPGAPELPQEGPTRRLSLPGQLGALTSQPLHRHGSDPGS
row,Structure (SMILES),"hERG current change (%, negative = inhibition) at 10uM"
1,C[C@]12CCC(=O)C=C1[C@H](O)C[C@@H]1[C@@H]2[C@@H](O)C[C@@]2(C)[C@H]1CC[C@]2(O)C(=O)CO,21%
2,C/C(=N/NS(=O)(=O)c1ccc(C)cc1)[C@H]1C[C@@H]1c1ccccc1,-2.74%
3,O=C(NCCCN1CCCC1=O)C1CCN(S(=O)(=O)c2c(Cl)cccc2Cl)CC1,-0.379%
4,CC1(C)C(=O)Nc2ccccc2N1C(=O)COC(=O)C1CCCCC1,-4.27%
5,CC(c1ccco1)N(C(=O)c1cccs1)c1ccccn1 (stereo not shown),5.33%
6,COCCNC(=O)c1ccc(C)c(NC(=O)C2=C(C)OCCS2)c1,21.1%
7,Nc1nonc1NC(=O)CSc1nc2ccccc2s1,11.2%
8,CC(C)NC(=S)N/N=C/c1sc(N2CCCCC2)nc1-c1cccs1,1.56%
9,CCCCN(C(=O)CSc1nc2ccccc2n1CC)C1CCS(=O)(=O)C1 (stereo not shown),0.601%
10,COc1ccc2cc(OCC(=O)NNC(=O)Nc3ccc(OC)c(OC)c3)ccc2c1,17.3%
11,CCOc1cc(C(=O)OCC(=O)Nc2ccc(SC(F)F)cc2)cc(OCC)c1OCC,4.57%
12,Cc1cc(NC(=O)CCC2CCCCC2)no1,-6.64%
13,O=C(Nc1cccc(C(=O)N2CCOCC2)c1)c1ccccc1,-5.44%
14,Cc1cccc(OP(=O)(Nc2cccnc2)Oc2cccc(C)c2)c1,-38.1%
15,CCc1ccc(N(CC(=O)NC2CCCCC2)C(=O)CCC(=O)Nc2ccccn2)cc1,-7.01%
16,COc1ccccc1NC(=O)c1cccc(S(=O)(=O)N2CCN(Cc3ccccc3)CC2)c1,-19.6%
17,CCCCNC(=O)NNC(=O)c1ccoc1C,6.58%
18,CC1(C)CC(CC(=O)Nc2ccccn2)C(=O)O1 (stereo not shown),-3.51%
19,CCOc1ccc(NC(=O)CN(C)C(=O)c2cn(-c3ccc(F)cc3)nc2-c2cccc(OC)c2)cc1OCC,0.419%
20,C#Cc1ccc([C@H]2C=C(C(=O)NCc3ccccc3)O[C@@H](OCC)[C@@H]2CCCO)cc1,-25.4%
21,c1ccc(-c2csc3nnc(SCc4ccc5c(c4)OCCO5)n23)cc1,-3.29%
22,COc1cc(/C=C/C(=O)OCC(=O)Nc2ccc(NC(C)=O)cc2)cc(S(=O)(=O)N2CCc3ccccc32)c1OC,7.44%

row,Structure (SMILES),"hERG current change (%, negative = inhibition) at 10uM"
1,COC(=O)c1ccc(CN(c2ccccc2Cl)S(C)(=O)=O)cc1,13.2%
2,Cc1ccc(-c2cn(-c3ccccc3)c(SCC(N)=O)n2)cc1C,-36.2%
3,CCC(=O)Oc1ccc(C(=O)Nc2cccc(C(=O)c3ccccc3)c2)cc1,-23.8%
4,COc1ccc(Br)cc1C(=O)Nc1cccc(-c2nnc(-c3ccco3)o2)c1,-18.8%
5,CNC(=O)C(=O)NCCCN1CCOCC1,7.92%
6,CCCCN1CCNC[C@H]1Cc1ccc(O)cc1,-9.4%
7,Cc1ccc(-n2ccc(=O)c(C(=O)Nc3ccc(S(=O)(=O)Nc4onc(C)c4C)cc3)n2)cc1,21.1%
8,O=C(O)CCC(=O)c1ccc2c(c1)OCCO2,1.89%
9,O=C(CCCCn1c(=O)c2ccccc2n(CC(=O)Nc2ccccc2)c1=O)NCc1ccco1,7.33%
10,C=CCN1c2ccccc2[C@]23C[C@@H](C(=O)OC)N(C(=O)c4cc(C)oc4C)C2=NC(C(=O)OC)=C(C(=O)OC)[C@H]13,-21%
11,CCOc1cc(/C=C2\CCn3c2nc2cc(Cl)ccc2c3=O)ccc1O,30.5%
12,Cc1ccc(C(=O)NCC(=O)N2CCCC(C(F)(F)F)C2)s1 (stereo not shown),5.25%
13,COc1ccc(N(CC(=O)Nc2c(C)n(C)n(-c3ccccc3)c2=O)S(=O)(=O)c2ccc(F)cc2)cc1,-14.9%
14,Cc1ccc(C#N)c(SCC(=O)Nc2nccs2)n1,10.6%
15,O=C(O)/C(CC(=O)c1ccc(Cl)cc1)=N/Nc1ccc([N+](=O)[O-])cc1[N+](=O)[O-],9%
16,COc1cc(NC(=O)c2ccccc2[N+](=O)[O-])ccc1NC(=O)c1cc2ccccc2o1,13%
17,COc1ccc(/C=N/N2C(C)CCCC2C)cc1OC (stereo not shown),11%
18,CCOC(=O)C1C(c2ccc([N+](=O)[O-])cc2)C2C(=O)NN=C2CC1(C)O (stereo not shown),17.9%
19,COc1ccccc1N1CCN(C2CC(=O)N(c3ccc(F)cc3)C2=O)CC1 (stereo not shown),0.313%
20,Cc1cc(C)cc(OC(C)C(=O)NCCCn2ccnc2)c1 (stereo not shown),1.12%
21,O=[N+]([O-])c1ccc(/C=N/NC(=S)Nc2ccccc2C(F)(F)F)o1,-3.07%
